# From the supplement of paper PMC4604168 (melanoma cell lines)
# The other results are listed elsewhere or left out. Many values rest on one well or one pass, so single values are uncertain.
# Assays:
# Test in all cases: cell count relative to DMSO control; melanoma cells; higher = more viable cells
# Conditions in all cases: library dose: standard library concentration; 72 h
# G361 = test system: G361
# IPC-298 = test system: IPC-298
# IST-MEL1 = test system: IST-MEL1
# LB2518-MEL = test system: LB2518-MEL
# LOXIMVI = test system: LOXIMVI
# MEL-HO = test system: MEL-HO
# MZ2-MEL = test system: MZ2-MEL
# MeWo = test system: MeWo
# RPMI7951 = test system: RPMI7951
# RVH-421 = test system: RVH-421
# SkMel28 = test system: SkMel28
# SkMel2 = test system: SkMel2
# SkMel30 = test system: SkMel30
# SkMel5 = test system: SkMel5
# UACC257 = test system: UACC257
# UACC62 = test system: UACC62
# WM115 = test system: WM115
# WM1716 = test system: WM1716
# WM3526 = test system: WM3526
# 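Further: cells treated in 1,536-well plates, then fixed and DAPI-stained, with nuclei counted from automated high-throughput microscope images.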
SMILES,cell count (G361) [%],cell count (IPC-298) [%],cell count (IST-MEL1) [%],cell count (LB2518-MEL) [%],cell count (LOXIMVI) [%],cell count (MEL-HO) [%],cell count (MZ2-MEL) [%],cell count (MeWo) [%],cell count (RPMI7951) [%],cell count (RVH-421) [%],cell count (SkMel28) [%],cell count (SkMel2) [%],cell count (SkMel30) [%],cell count (SkMel5) [%],cell count (UACC257) [%],cell count (UACC62) [%],cell count (WM115) [%],cell count (WM1716) [%],cell count (WM3526) [%]
"Cn1cnc2c(F)c(Nc3ccc(Br)cc3Cl)c(C(=O)NOCCO)cc21 [selumetinib] + c1cc(-c2cnn3cc(-c4ccc(OCCN5CCCCC5)cc4)cnc23)ccn1 [Dorsomorphin] (first compound 0.075 µM, partner dose 2 µM)",50.1,69.3,86.8,46.4,94,86.6,60.6,82.4,68,74.1,66.5,65.9,86.5,72.8,92,63.9,79.5,71.4,59.6
"Cn1cnc2c(F)c(Nc3ccc(Br)cc3Cl)c(C(=O)NOCCO)cc21 [selumetinib] + CC(C)CCN1c2nc(Nc3cc(F)c(O)c(F)c3)ncc2N(C)C(=O)C1C [BID1870] (first compound 0.075 µM, partner dose 1 µM)",62.1,45.9,78.9,47.9,81.1,67.8,61.8,55.4,91.6,68,44.5,41.9,51.5,58.6,73.5,59.6,83.7,76.3,59.5
"Cn1cnc2c(F)c(Nc3ccc(Br)cc3Cl)c(C(=O)NOCCO)cc21 [selumetinib] + O=S(=O)(c1ccccc1)N(CC(F)(F)F)c1ccc(C(O)(C(F)(F)F)C(F)(F)F)cc1 [T0901317] (first compound 0.075 µM, partner dose 7 µM)",52.8,43.2,85.2,56.5,90.7,78.9,64.6,65.3,108,64.3,51.7,57.8,69.5,73.2,106,61.8,89.2,73.9,55.8
"C[C@]1(O)C[C@@H](c2nc(-c3ccc4ccc(-c5ccccc5)nc4c3)c3c(N)nccn32)C1 + O=S(=O)(c1ccccc1)N(CC(F)(F)F)c1ccc(C(O)(C(F)(F)F)C(F)(F)F)cc1 [T0901317] (first compound 2 µM, partner dose 7 µM)",77.2,91.2,102,96.7,98.5,90.8,142,77.4,79.8,91.6,96,82.9,103,63.2,72.3,81.1,98.2,94.5,76.5
"C[C@]1(O)C[C@@H](c2nc(-c3ccc4ccc(-c5ccccc5)nc4c3)c3c(N)nccn32)C1 + CCc1ccc(CCOc2ccc(CC3SC(=O)NC3=O)cc2)nc1 [pioglitazone] (first compound 2 µM, partner dose 10 µM)",74.5,93.2,98.5,87.3,77.7,91.3,103,67.6,71.9,94.6,66.3,71.3,93.7,75,85.1,83.8,103,85.1,77.4
"Cn1cnc2c(F)c(Nc3ccc(Br)cc3Cl)c(C(=O)NOCCO)cc21 [selumetinib] + COc1ccc(COc2ccc(Cc3cnc(N)nc3N)cc2OC)cc1 [GW2580] (first compound 0.075 µM, partner dose 5 µM)",74.5,53.6,105,50.9,134,87.1,72.8,76.4,168,83.5,46.4,59.2,83.6,69.7,96,64.6,63.3,87.8,74.7
"CCN(CC)CCNC(=O)c1c(C)[nH]c(/C=C2\C(=O)Nc3ccc(F)cc32)c1C [sunitinib] + Cn1cc(/C=C2\C(=O)Nc3cccnc32)c2ccccc21 [GW441756] (first compound 2 µM, partner dose 2 µM)",77.3,71.3,89.9,63.2,86.6,91.3,107,49.1,66.8,84.2,41.7,83.5,50.2,45.5,77.5,59.7,63.3,95.8,59.6
"CCN(CC)CCNC(=O)c1c(C)[nH]c(/C=C2\C(=O)Nc3ccc(F)cc32)c1C [sunitinib] + COc1ccc(COc2ccc(Cc3cnc(N)nc3N)cc2OC)cc1 [GW2580] (first compound 2 µM, partner dose 5 µM)",31.1,64.7,86.7,66.7,112,77.3,72.9,50.1,58,76.3,63.4,54.4,40.7,37.8,85.1,45.6,59.8,105,56.3
"COc1cc([C@@H]2c3cc4c(cc3[C@@H](O[C@@H]3O[C@@H]5CO[C@@H](C)O[C@H]5[C@H](O)[C@H]3O)[C@H]3COC(=O)[C@H]23)OCO4)cc(OC)c1O [etoposide] + COc1ccc2c(c1)CCC1C2CCC2(C)C(NCCCCCCN3C(=O)C=CC3=O)CCC12 [U73122] (first compound 0.1 µM, partner dose 2 µM)",97.9,85.3,103,94.9,84.8,85.6,98.7,66.5,37,79.9,112,83.9,103,91.9,96,64.2,79.5,56,93.5
"Cn1cnc2c(F)c(Nc3ccc(Br)cc3Cl)c(C(=O)NOCCO)cc21 [selumetinib] + Cn1cc(/C=C2\C(=O)Nc3cccnc32)c2ccccc21 [GW441756] (first compound 0.075 µM, partner dose 2 µM)",45.8,54.4,84.3,50.5,98,75.8,76.6,74.3,130,86.3,36.6,51.3,49.5,59.5,69.8,45.1,65,75,42.2
"Cn1cnc2c(F)c(Nc3ccc(Br)cc3Cl)c(C(=O)NOCCO)cc21 [selumetinib] + COC(=O)c1sccc1S(=O)(=O)Nc1ccc(Nc2ccccc2)cc1OC [GSK0660] (first compound 0.075 µM, partner dose 5 µM)",67.4,60.1,80.4,48.1,112,86.8,71.6,84.4,100,92.4,60.9,65.1,61.9,67.8,100,67.2,66.8,75.8,49.1
"COc1cc([C@@H]2c3cc4c(cc3[C@@H](O[C@@H]3O[C@@H]5CO[C@@H](C)O[C@H]5[C@H](O)[C@H]3O)[C@H]3COC(=O)[C@H]23)OCO4)cc(OC)c1O [etoposide] + c1cc(-c2cnn3cc(-c4ccc(OCCN5CCCCC5)cc4)cnc23)ccn1 [Dorsomorphin] (first compound 0.1 µM, partner dose 2 µM)",60.1,67.5,85.7,60.3,109,85.1,56.4,76.4,77.7,95.3,60.9,54.9,95.8,43.6,67.2,52,60.8,52.5,90
"CCN(CC)CCNC(=O)c1c(C)[nH]c(/C=C2\C(=O)Nc3ccc(F)cc32)c1C [sunitinib] + O=C1NC(=O)/C(=C/c2ccc(-c3ccc(F)cc3O)o2)S1 [AS252424] (first compound 2 µM, partner dose 5 µM)",77,70.8,94.3,79.9,106,86.5,99,62,90.9,126,68.6,72.2,67.5,52.3,96.6,107,79.5,106,53.6
